# Among all 310,000 compounds or so, about 2,200 (0.71%) showed an effect of 50% or more. Effects have a minus sign here. Some of the results follow.
# Target: human ether-à-go-go-related gene (hERG) potassium channel (human, UniProt Q12809)
# Test: primary screen, population patch clamp on CHO cells stably expressing hERG
# human ether-à-go-go-related gene (hERG) potassium channel, sequence (Q12809 whole entry, looked up): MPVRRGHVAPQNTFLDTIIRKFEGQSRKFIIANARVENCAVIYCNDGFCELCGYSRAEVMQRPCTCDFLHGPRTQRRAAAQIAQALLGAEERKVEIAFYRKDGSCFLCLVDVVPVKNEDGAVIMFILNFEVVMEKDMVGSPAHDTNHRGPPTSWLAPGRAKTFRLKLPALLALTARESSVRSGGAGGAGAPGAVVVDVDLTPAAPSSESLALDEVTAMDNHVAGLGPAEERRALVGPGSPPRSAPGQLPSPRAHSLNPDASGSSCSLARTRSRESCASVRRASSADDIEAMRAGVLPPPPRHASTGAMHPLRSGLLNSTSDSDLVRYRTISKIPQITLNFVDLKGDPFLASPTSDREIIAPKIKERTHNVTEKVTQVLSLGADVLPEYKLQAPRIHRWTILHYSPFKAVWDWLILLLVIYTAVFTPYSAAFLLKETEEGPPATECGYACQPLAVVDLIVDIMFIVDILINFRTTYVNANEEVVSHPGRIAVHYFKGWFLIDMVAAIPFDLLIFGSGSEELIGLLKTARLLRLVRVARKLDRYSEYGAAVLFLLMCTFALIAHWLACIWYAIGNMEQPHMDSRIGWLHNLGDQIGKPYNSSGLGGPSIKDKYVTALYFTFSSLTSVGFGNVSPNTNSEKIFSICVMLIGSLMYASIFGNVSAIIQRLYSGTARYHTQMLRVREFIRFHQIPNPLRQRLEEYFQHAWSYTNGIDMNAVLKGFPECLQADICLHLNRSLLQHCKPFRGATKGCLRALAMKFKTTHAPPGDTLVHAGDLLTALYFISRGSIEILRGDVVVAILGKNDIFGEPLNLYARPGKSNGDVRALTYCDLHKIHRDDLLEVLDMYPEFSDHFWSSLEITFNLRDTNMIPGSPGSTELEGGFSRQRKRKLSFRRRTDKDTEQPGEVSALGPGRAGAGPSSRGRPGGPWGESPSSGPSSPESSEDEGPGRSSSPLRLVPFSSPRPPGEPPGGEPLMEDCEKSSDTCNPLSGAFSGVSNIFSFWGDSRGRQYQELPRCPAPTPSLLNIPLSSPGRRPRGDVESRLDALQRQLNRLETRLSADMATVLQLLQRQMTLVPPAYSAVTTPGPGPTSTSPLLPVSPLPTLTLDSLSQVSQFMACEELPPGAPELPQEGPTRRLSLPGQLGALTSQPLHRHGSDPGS
row,SMILES,"hERG current change (%, negative = inhibition) at 1uM [%]"
1,CCCc1nc(SCC(=O)NCC2CCCO2)c2c(=O)n(C)c(=O)n(C)c2n1 (stereo not shown),11.6
2,CCCCNC(=O)[C@H](Cc1c[nH]c2ccccc12)NC(=O)c1ccccc1Cl,5.34
3,COC(=O)C1SCCN1S(=O)(=O)c1ccc(Cl)cc1 (stereo not shown),2.67
4,CC1(c2ccccc2)CC(C)(C)N(C(=O)c2cc([N+](=O)[O-])cc([N+](=O)[O-])c2)c2ccccc21 (stereo not shown),15.7
5,CC(C)(C)NC(=O)CN(Cc1cccnc1)C(=O)c1csnn1,4.4
6,CCOC(=O)COc1ccc(S(=O)(=O)NCc2cccnc2)cc1,5.98
7,COc1ccc(C2CC(c3ccccc3)=NN2C(=O)COC(=O)C2(C)CC2(Cl)Cl)cc1 (stereo not shown),13.5
8,CCOc1ccc(CNc2ccc(S(N)(=O)=O)cc2)cc1,9.95
9,N=c1ccccn1CC(O)COc1ccccc1 (stereo not shown),9.64
10,O=C(Nc1ccc2nc3n(c(=O)c2c1)CCCC3)c1ccccc1[N+](=O)[O-],9.03
11,COc1ccccc1NC(=O)Cn1ccn(-c2cccc3ccccc23)c(=O)c1=O,-5.69
12,CCOC(=O)CSc1nc2c(sc(=S)n2-c2ccccc2)c(=O)[nH]1,-0.273
13,CCn1cc(C(=O)N2CCOCC2)c(=O)c2cc(S(=O)(=O)N(C)C)ccc21,4.21
14,O=c1c2ccccc2[nH]c(=S)n1CCN1CCCC1,1.44
15,COc1ccc(-c2cn(-c3ccc(Br)cc3)c3[n+]2CCS3)cc1.[Br-],-16.9
16,Cc1cc(O)ccc1NC(=O)CCN1C(=O)c2ccc([N+](=O)[O-])cc2C1=O,12.6
17,Cc1ccc(NS(=O)(=O)c2ccc(C(=O)NCCCN3CCCC3=O)cc2)cc1C,16.4
18,Cc1ccccc1N1C(=O)Cc2ccccc2C1=O,12.8
19,O=C(NN1C(=O)C2C3C=CC([C@H]4CC34)[C@@H]2C1=O)c1ccc(Br)cc1 (stereo partly shown),12.2
20,O=C(c1ccccc1)N1CCC(c2nc(-c3ccc(S(=O)(=O)N4CCOCC4)cc3)no2)CC1,-2.24
21,CCc1nnc(NC(=O)CN2CCN(Cc3cccc(F)c3)CC2)s1,9.59
22,COCc1cc(C)nc(SCC(=O)Oc2ccccc2)c1C#N,6.52

row,SMILES,"hERG current change (%, negative = inhibition) at 1uM [%]"
1,CC(C)(C)C(=O)Nc1nc(C2CCCN2S(=O)(=O)c2ccc(Cl)cc2)cs1 (stereo not shown),5.04
2,Cc1nc2ccc(NS(=O)(=O)c3ccc(F)cc3F)cc2s1,-14.3
3,CCOCCCNC(=O)c1ccc2c(c1)N(CC)C(=O)c1ccccc1S2=O (stereo not shown),11.2
4,O=C(Nc1c(C(=O)Nc2ccccc2)cnn1-c1ccccc1)c1ccco1,7.39
5,CC1(C)CC(=O)C(C(c2ccncc2)C2C(=O)CC(C)(C)CC2=O)C(=O)C1,9.96
6,CC1Sc2ccc(C(=O)Nc3cc(S(C)(=O)=O)ccc3Cl)cc2NC1=O (stereo not shown),6.25
7,COc1ccccc1OCCNC(=O)CSC(=S)N1CCCC1,9.66
8,CCC1=C2CC[C@H]3C(=O)N(CC)C(=O)[C@H]3[C@H]2[C@@]2(Cc3ccccc3)C(=NCc3ccccc3)OC(=O)N2C1=O,7.2
9,CCOC(=O)C1CCCN(C(=O)C2CCN(S(=O)(=O)N3CCC4(CC3)OCCO4)CC2)C1 (stereo not shown),5.45
10,O=C(N/N=C/c1ccc[nH]1)c1cc(-c2cccs2)nc2ccccc12,9.6
11,O=C(C1CCC(=O)N(C2CC2)C1)N1CCC(Oc2ccccc2F)CC1 (stereo not shown),11.9
12,CC(C)c1ccc(S(=O)(=O)c2cc3cc(Br)ccc3oc2=O)cc1,8.59
13,COc1ccc(Nc2nc3ccc(C)cn3c(=O)c2/C=N/O)cc1,10.6
14,Cc1ccc(NC(=O)C2CCCN(C(=O)NCc3ccccc3)C2)c(C)c1 (stereo not shown),13.1
15,COc1cc(C(=O)NC(=S)Nc2ccc(N3CCCC3)cc2)cc(OC)c1OC,9.03
16,COc1ccc(Nc2nc(N)c([N+](=O)[O-])c(N3CCN(C)CC3)n2)cc1,8.45
17,COc1nc(N)c(C#N)c(-c2ccc(N(C)CCC#N)cc2)c1C#N,5.24
18,COC(=O)c1ccccc1NC(=O)COC(=O)/C=C/c1ccco1,5.32
19,Oc1ccc(N=Nc2nc(-c3ccccc3)c(-c3ccccc3)[nH]2)cc1,13.4
20,COc1c(Cl)cc(Cl)cc1C(=O)Nc1ccc(C(=O)O)cc1,19.9
21,Cc1cccc(NC(=O)Cn2cc(C(=O)C3CC3)c3ccccc32)c1C,11.2
22,O=C(O)C1CCCN1S(=O)(=O)c1ccc(F)cc1 (stereo not shown),15.7

row,SMILES,"hERG current change (%, negative = inhibition) at 1uM [%]"
1,O=C(Cn1cc2c(n1)CCCC2)N1CCCc2ccccc21,0.83
2,NC(=O)CSc1nc(N)c2c3c(sc2n1)CCCCC3,-1.65
3,CCN(CC)S(=O)(=O)c1cccc(-c2nnc(-c3ccc(C)cc3)o2)c1,11.6
4,CCOC(=O)c1cc(C(=O)NCc2ccc(Cl)cc2Cl)nn1C,8.91
5,CCOC(=O)NC(=O)CSc1nc2ccccc2[nH]1,13.9
6,Cc1cc2ccccc2nc1SCC(=O)N1c2ccccc2CC1C (stereo not shown),14.5
7,CCN(CC(=O)Nc1ccc(OC)cc1)C(=O)c1cc(S(=O)(=O)N(C)C)ccc1N1CCCC1,3.45
8,CC(=O)Nc1ccc(/C(C)=N/NC(=O)c2ccc(F)cc2)cc1,10.7
9,CN(C)S(=O)(=O)c1ccc(N2CCCC2)c(C(=O)NCc2ccc(Cl)cc2)c1,-34.4
10,Cc1ccccc1-c1nc2cc(Cl)ccc2o1,11
11,CSc1ccc(CNCC(O)c2ccccc2)cc1.Cl (stereo not shown),-9.69
12,CCOc1ccc(-c2cn(-c3ccc(OC)cc3)c(SC)n2)cc1,4.91
13,N=C1C(c2ccccc2)=C(O)CN1c1cccc(S(=O)(=O)Nc2cccc(C(F)(F)F)c2)c1,25.6
14,CC(OC(=O)CCCCCN=C1NS(=O)(=O)c2ccccc21)C(=O)Nc1cc(Cl)cc(Cl)c1 (stereo not shown),-8.01
15,N#Cc1ccccc1NC(=O)CNc1ccccc1N1CCCCC1,-7.63
16,Cc1ccc2c(c1)N(C(=O)CSc1nncn1C)C(C)(C)c1ssc(=S)c1-2,4.16
17,COc1ccc2c(c1)C(C)CC(C)(C)N2C(=O)NC1CCCCC1 (stereo not shown),5.4
18,COc1cc(/C=C(\C#N)C(=O)c2c(C)[nH]c3ccccc23)cc(OC)c1OC,10.8
19,O=C(Cn1cnc2scc(-c3ccccc3)c2c1=O)N1CCOCC1,8.16
20,CC1=C(C)CC(C(=O)NCc2cccc(Cl)c2)C(C(=O)O)C1 (stereo not shown),10.6
21,COCCNC(=O)c1nc2ccccc2s1,10.6
22,CCCCS(=O)CC(COCc1ccccc1)OC(=O)CSc1nc(C)cc(C)n1 (stereo not shown),-7.39

row,SMILES,"hERG current change (%, negative = inhibition) at 1uM [%]"
1,CCOC(=O)CCCNC(=O)CN1CCC(c2nc3ccccc3s2)CC1,-20.1
2,CCC(=O)Nc1ccccc1C(=O)N1CCCC1,8.44
3,Cc1ccc(S(=O)(=O)N2CCCCC2)cc1NC(=O)CSc1nnnn1C,-3.71
4,Cc1ccc2[nH]c(=O)c(CNC(C)C)cc2c1,12.3
5,COc1ccc(CCn2c(=O)[nH]c3cc(C(=O)N4CCN(c5ccccn5)CC4)ccc3c2=O)cc1OC,12.2
6,CCNC(=O)CN1c2cccc3cccc(c23)S1(=O)=O,-0.52
7,COCCCN(C(=O)c1ccco1)c1nc(-c2cc(OC)ccc2OC)cs1,-2.17
8,C=CCOC(=O)C1=C(C)Nc2ncnn2C1c1cccs1 (stereo not shown),8.89
9,COC(=O)[C@H](CCSC)NC(=O)Nc1ccc(C(C)C)cc1,1.21
10,CCS(=O)(=O)c1ccc(O)c(NC(=O)CCCC(=O)O)c1,4.84
11,COc1cc(CN2CCc3ccccc3C2)cc([N+](=O)[O-])c1O,14.1
12,O=C(CN1CCN(C(=O)C2CCCO2)CC1)Nc1c(Cl)cccc1Cl (stereo not shown),18.8
13,O=C(NCc1ccco1)c1cc([N+](=O)[O-])ccc1Cl,5.04
14,CC(=O)Nc1c(C(=O)N2CCOCC2)cnn1-c1ccc(C)c(C)c1,9.6
15,Cc1ccc(C)c(NC(=O)C(NCC(C)(C)N2CCOCC2)c2ccccc2)c1 (stereo not shown),-12.3
16,Cc1cc(C(=O)CSc2nc(N)cc(=O)[nH]2)c(C)n1CCc1ccc(F)cc1,7.52
17,N#Cc1cc2c(nc1Cl)CCCC2,11.1
18,O=C(CCC(=O)c1cccs1)NCCc1ccc(F)cc1,10.2
19,CC12CC(NC(=O)N1c1ccc(C(=O)N3CCN(c4ccc(F)cc4)CC3)cc1)c1ccccc1O2 (stereo not shown),12.9
20,CCS(=O)(=O)c1nc(S(=O)(=O)c2ccc(C)cc2)c(N2CCOCC2)s1,15
21,Cc1nn2cc(-c3ccc(Cl)cc3)cnc2c1Br,16.8
22,CN(C)CCN(C(=O)c1ccc(C(=O)c2ccccc2)cc1)c1nc2cc3c(cc2s1)OCO3.Cl,11.2
